Here are results for 42 sequences from article PMC7819943, “Rice protein-binding microarrays: a tool to detect cis-acting elements near promoter regions in rice”.

Some of the results follow.

In the experiment the target is T1, OsWOX13 (Oryza sativa, UniProt Q5QMM3 1-267).
T1 sequence: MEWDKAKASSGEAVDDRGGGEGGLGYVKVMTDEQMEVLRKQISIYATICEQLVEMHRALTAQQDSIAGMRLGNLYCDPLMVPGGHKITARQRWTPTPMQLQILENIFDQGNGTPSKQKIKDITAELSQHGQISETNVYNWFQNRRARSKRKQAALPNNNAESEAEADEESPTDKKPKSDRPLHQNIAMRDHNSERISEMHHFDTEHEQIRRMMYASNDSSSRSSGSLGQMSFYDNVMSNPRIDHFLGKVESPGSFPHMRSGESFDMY
The experiment is described as follows: protein-binding microarray (RPBM); PBS, 2% BSA, 51.3 ng/ul salmon testes DNA, 50 uM zinc acetate, 200 nM TF, 25 C, 1 h; high values mean tight binding. The settings on record: protein: recombinant; tags: N-terminal polyhistidine and DsRed monomer fusion (pET32a); label: CyDye5-dUTP incorporated in the synthesized complementary strand; 3' TTTTT single-stranded linker to array surface; dsDNA, one strand shown. An outline of the steps: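 Binding signal here means per-feature fluorescence intensity in arbitrary units. The values were read on an Axon 4000B scanner after a custom Agilent array, double-stranded by primer extension with Cy5-dUTP, was incubated with 200 nM protein at 25 °C for 1 h in PBS with 2% BSA, salmon testes DNA and 50 µM zinc acetate, then washed. The proteins were transcription factors with an N-terminal polyhistidine tag and DsRed, expressed in E. coli BL21-CodonPlus and purified on Ni–NTA.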
As for “GTCGCCCTGTCACAATCAATCGTCCATTGAGGATAAAGCGCGGAGTCACCTAGTGCAG”, the binding signal is 8000 fluorescence intensity (a.u.).

“GATAATTTCATAAATTTCGACCATCATTACAAAATCAGTTCGGAGTCACCTAGTGCAG”: the binding signal was 22200 fluorescence intensity (a.u.).

On to “ACTTAAAATTATCTGATTTAGGCCTTGTTTAGTTTAGGGGCGGAGTCACCTAGTGCAG”, for which the binding signal is 13300 fluorescence intensity (a.u.).

As for “GGATGACTAGAGTATTAGATTAGATATAAATGATTTAGAACGGAGTCACCTAGTGCAG”, the binding signal was 9640 fluorescence intensity (a.u.).

Consider “CTTAACTTATGTTTTCTTGTTCTTGCTTCCTTGTCAGTAACGGAGTCACCTAGTGCAG”, for which the binding signal was 3330 fluorescence intensity (a.u.).

“GTAATGATAATATTGATTCCTAGTAGTTTATATTACTGATCGGAGTCACCTAGTGCAG”: the binding signal is 5870 fluorescence intensity (a.u.).

Consider “ATAGATTGAATAATCACAGAACATGTGTACATATAGACATCGGAGTCACCTAGTGCAG”, for which the binding signal was 43000 fluorescence intensity (a.u.).

For “CCTAAACAGGACCTAAACAAATTCCTAACTACTCTAGCTACGGAGTCACCTAGTGCAG”, the binding signal was 17700 fluorescence intensity (a.u.).

Take “ATAATAATTAATCAATTCATTATGCACTAATGATTACCGCCGGAGTCACCTAGTGCAG”: the binding signal is 41700 fluorescence intensity (a.u.).

“GAACAAATTATAGTTATCAAATGAACAAATCCATGTATATCGGAGTCACCTAGTGCAG”: the binding signal is 8230 fluorescence intensity (a.u.).

In the case of “GTTCAATTTTGTCATAATCGGCTGCTTCTTCGCTTCAATTCGGAGTCACCTAGTGCAG”, the binding signal was 3780 fluorescence intensity (a.u.).

For the sequence “TAATCTAATCATCGGCCAATATAACTGCACAATGAATCCACGGAGTCACCTAGTGCAG”, the binding signal is 7130 fluorescence intensity (a.u.).

“CGATCGTTTAATTAATTAGTAATTACACACTCGATCGTCCCGGAGTCACCTAGTGCAG”: the binding signal is 35500 fluorescence intensity (a.u.).

For the sequence “AAGTTAAATTGACAATCCTACCTGCTCGTCAAATTTCAACCGGAGTCACCTAGTGCAG”, the binding signal was 27500 fluorescence intensity (a.u.).

Take “CATGGAAATTGGCCTTTTGATATATTAATTGGTAGCGATCCGGAGTCACCTAGTGCAG”: the binding signal is 22900 fluorescence intensity (a.u.).

“CTGACTGGCACGCCCGTATCTCATCAACCTTTGGACCTGCCGGAGTCACCTAGTGCAG”: the binding signal was 3810 fluorescence intensity (a.u.).

“TAGCCTTTGATAGACATAAAGATTCGTGCAACATTATCGGCGGAGTCACCTAGTGCAG”: the binding signal was 11700 fluorescence intensity (a.u.).

In the case of “GATAAATTAACCGGCAGTGGTACGACACAATGGATAGCCCCGGAGTCACCTAGTGCAG”, the binding signal is 21100 fluorescence intensity (a.u.).

With “CTATTGACAAAACGAAACTGTTGACTTGTGAGAAAGCGTCCGGAGTCACCTAGTGCAG”, the binding signal is 7580 fluorescence intensity (a.u.).

With “ATAATATTTAATATTTAATTAATTATGTGCTAATAAATCGCGGAGTCACCTAGTGCAG”, the binding signal was 14300 fluorescence intensity (a.u.).

As for “TTATTATAAATTATCTTATCAATAAAGAAACTAACTTATACGGAGTCACCTAGTGCAG”, the binding signal was 4710 fluorescence intensity (a.u.).

For “GTAATTTGTTTTGTTATTAGTCTACGTTTAATACTTCAAGCGGAGTCACCTAGTGCAG”, the binding signal is 3250 fluorescence intensity (a.u.).

As for “CGTAACGGAATTAATACTACTTAGAAATCTCACCATTTCGCGGAGTCACCTAGTGCAG”, the binding signal is 7740 fluorescence intensity (a.u.).

As for “CTTCGCTAAAATAGATTAATTCCCGGGCAGTGTGTATGCTCGGAGTCACCTAGTGCAG”, the binding signal was 4480 fluorescence intensity (a.u.).

Take “GCCATAAAGGAAAACTCAATTAATTATCTAAAGTGTCAAGCGGAGTCACCTAGTGCAG”: the binding signal was 4740 fluorescence intensity (a.u.).

In the case of “ATTAGGTATGATTTAAATTAAAAGAAGAGTTTATGTGAGACGGAGTCACCTAGTGCAG”, the binding signal was 5080 fluorescence intensity (a.u.).

Turning to “TGAAATTTTATGCAATCATTGGGACACCATTAAATTTCATCGGAGTCACCTAGTGCAG”, the binding signal is 24900 fluorescence intensity (a.u.).

On to “ATAATTTGTTCAACATAGCTTCATGCCTTCTCAGCTTCTCCGGAGTCACCTAGTGCAG”, for which the binding signal is 3200 fluorescence intensity (a.u.).

“GGGGTAATTACAGTAAAACTAACATTTAATTATTGCAATACGGAGTCACCTAGTGCAG”: the binding signal is 30700 fluorescence intensity (a.u.).

In the case of “TCCTAATTAGCTCCTAGCTAGCTAGCTTTATATACCAAATCGGAGTCACCTAGTGCAG”, the binding signal is 23800 fluorescence intensity (a.u.).

Take “ACTGATAGACTGACATCCTGTCATCAACGAAGACACGGGCCGGAGTCACCTAGTGCAG”: the binding signal is 47700 fluorescence intensity (a.u.).

For “CGGAGATGATTTTGTTAAAGTTGTGCAACGTCTTGTTATGCGGAGTCACCTAGTGCAG”, the binding signal is 16600 fluorescence intensity (a.u.).

Turning to “TAGAGAAGATTGGAAAGATACGCAAAACAAGGTGAGGTATCGGAGTCACCTAGTGCAG”, the binding signal is 14700 fluorescence intensity (a.u.).

In the case of “AAGTTGTGATTAAGTTACTGTAGATAATAAAGTAAGTCACCGGAGTCACCTAGTGCAG”, the binding signal was 5840 fluorescence intensity (a.u.).

Take “TAAATAATTGATAAAATTGTTTCTGGTTCTATAGCACCAACGGAGTCACCTAGTGCAG”: the binding signal is 40300 fluorescence intensity (a.u.).

As for “ATCCAGTCTAATTATAACTGCCATGTAGATATGGGTATCCCGGAGTCACCTAGTGCAG”, the binding signal is 24600 fluorescence intensity (a.u.).

As for “ATATCCAATTATTGGACTCCATGACAGCATGCACCGATCGCGGAGTCACCTAGTGCAG”, the binding signal was 22100 fluorescence intensity (a.u.).

On to “ATAAATATTTAATGCAGTTGATTTTGATCATAAAGCTTGACGGAGTCACCTAGTGCAG”, for which the binding signal is 4530 fluorescence intensity (a.u.).

Take “ATTCGTGGATGTATTACTAATTAATTAGTGCAGGACTTAGCGGAGTCACCTAGTGCAG”: the binding signal is 11000 fluorescence intensity (a.u.).

For “CAGTACTGATTAAGCATTCTTTCAATTCGTCTGTTCCCCACGGAGTCACCTAGTGCAG”, the binding signal is 11000 fluorescence intensity (a.u.).

For the sequence “AAGAAAATTACAAGATGTAACACTCAAAATTGTCACGGTCCGGAGTCACCTAGTGCAG”, the binding signal is 3570 fluorescence intensity (a.u.).

As to “GATTGAAAATTTAAATTTTAGCTGGTAAGCATAAGCATATCGGAGTCACCTAGTGCAG”, the binding signal is 4520 fluorescence intensity (a.u.).
